Measured values taken from a compilation of properties of binary mixtures (doi:10.1016/j.jct.2022.106970).
Some of these densities may be calculated back from excess volumes.

Test: xn = mol fraction of the nth substance listed
Details: 92.3 kPa

CCO + CCCC[NH3+].O=C[O-]
x2 = 0
Details | mass density [kg/m3]
293.15 K | 789.4
298.15 K | 785.1
308.15 K | 776.4
313.15 K | 772

CCCC[NH3+].O=C[O-] + CCO
mass density [kg/m3]
Details | 293.15 K | 298.15 K | 303.15 K | 308.15 K | 313.15 K
x1 = 0.0484 | 811.6 | 807.5 | 803.4 | 799.3 | 795.2
x1 = 0.1038 | 832.3 | 828.4 | 824.5 | 820.6 | 816.7
x1 = 0.1507 | – | 843.8 | 840 | 836.2 | 832.4
x1 = 0.2004 | 861.7 | – | 854.4 | – | 847.1
x1 = 0.2564 | 875.9 | 872.4 | – | – | 861.6
x1 = 0.2938 | 884.5 | 881 | 877.5 | 874 | 870.5
x1 = 0.355 | 897 | 893.6 | – | – | 883.4
x1 = 0.3886 | – | 900 | 896.7 | 893.3 | –
x1 = 0.4521 | 914.2 | 910.9 | – | – | 901.2
x1 = 0.5005 | 921.7 | 918.4 | – | 912 | 908.8
x1 = 0.5487 | 928.5 | 925.3 | 922.2 | 919 | 915.9
x1 = 0.5982 | 934.9 | 931.8 | – | 925.6 | 922.5
x1 = 0.6393 | 939.9 | 936.8 | 933.8 | – | 927.7
x1 = 0.6993 | 946.7 | 943.7 | 940.7 | – | 934.7
x1 = 0.749 | 951.9 | 949 | 946 | 943 | 940.1
x1 = 0.7972 | – | 953.7 | 950.7 | 947.8 | 944.9
x1 = 0.8487 | 961.2 | – | 955.4 | 952.5 | 949.7
x1 = 0.8993 | 965.5 | 962.6 | 959.7 | 956.9 | 954.1
x1 = 0.9444 | – | – | 963.4 | 960.6 | 957.8
x1 = 1 | 973.6 | 970.8 | 968 | 965.2 | 962.5
